Among all 44,000 compounds or so, about 340 (0.77%) were called active. Not shown: some 5% with an inconclusive outcome. The call rests on the fitted dose curve; in most records, active means well fitted inhibition curve with a large enough effect; inconclusive means small, poorly fitted or top-dose-only effect; inactive means flat fitted curve, though single readings scatter. The list shows a part of the results.
assay: Acumen qHTS Assay for Inhibitors of the mTORC1 Signaling Pathway in MEF (Tsc2-/-, p53-/-) Cells: Sytravon; details: phospho-rpS6 immunofluorescence/PI, 24 h; series mostly up to 38.3 µM; activity change, negative = inhibition: at the top concentration;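 further: plate controls were DMSO for no effect and rapamycin for full effect; nearly all actives have a fitted effect of over 50% in size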
Outline: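 Plate MEFs (Tsc2-/-, p53-/-, empty vector) in DMEM/10% FBS; after 24 h add compound, incubate 24 h at 37 degree Celsius; fix in PFA/TX-100, block, stain phospho-rpS6 and 10 uM PI; scan at 488 nm; report % positive cells.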

Row | Structure (SMILES) | activity change, negative = inhibition
1 | CC(=O)c1ccc(NC(=O)CCCc2nc(-c3cccc(C)c3)no2)cc1 | inactive: -1.35%
2 | CCn1c(=O)sc2cc(NC(=O)c3cccc(OC)c3)ccc21 | inactive: 2.63%
3 | COc1ccc(C2CC(=O)c3c(C)nc(N4CCN(C=O)CC4)nc3C2)c(OC)c1 (configuration not stated) | inactive: -2.44%
4 | CCN1CCN(c2nnc(-n3cccc3C(=O)Nc3cccc(OC)c3)s2)CC1 | inactive: 11.8%
5 | O=C(Cn1ccn(-c2ccc(F)c(F)c2)c(=O)c1=O)c1ccc(F)cc1 | inactive: 7.37%
6 | CC(C)c1nn2c(=O)cc(COC(=O)CNC(=O)c3ccccc3Cl)nc2s1 | inactive: 1.69%
7 | CCOc1ccc(Cn2c(CNS(=O)(=O)c3c(C)cc(C)cc3C)nc3cccnc32)cc1 | inactive: 1.84%
8 | Cc1nnc(NC(=O)CSc2nccn2-c2ccc(Cl)cc2)s1 | inactive: -1.26%
9 | CCC(C)n1c(SCc2ccc(C(C)(C)C)cc2)nc2ccsc2c1=O (configuration not stated) | inactive: 0.691%
10 | Cc1ccc(OCc2nc(-c3ccc(C(=O)N4CCN(c5cc(Cl)ccc5C)CC4)cc3)oc2C)cc1 | inactive: -4.23%
11 | O=S(=O)(c1ccccc1)c1nc(-c2cccs2)oc1SCc1ccccc1Cl | inactive: 2.62%
12 | CCOC(=O)CC(=O)CSc1nc2ccccc2c(=O)n1-c1ccc(C(=O)NCCOC)cc1 | inactive: 0.974%
13 | COC(=O)c1ccc(C(=O)OC)c(NC(=O)N2CC3CCCN3c3ccccc32)c1 (configuration not stated) | inactive: -1.11%
14 | O=C(CC1NCCNC1=O)Nc1ccccc1F (configuration not stated) | inactive: 4.73%
15 | CCOC(=O)c1c(-c2ccc(C)cc2)csc1NC(=O)c1cc(=O)c2cc(Cl)ccc2o1 | inactive: 1.92%
16 | CCOc1ccccc1NC(=O)CSc1nc2c([nH]c3ccccc32)c(=O)n1-c1ccccc1 | inactive: -0.878%
17 | Cc1ccc(Cl)cc1N1CCN(C(=O)c2cc3c(=O)n(C)c4ccccc4c3s2)CC1 | inactive: 3.21%
18 | Cc1ccc2nc(COc3cccc(NC(=O)COc4ccccc4F)c3)cc(=O)n2c1 | inactive: -14.4%
19 | CCOC(=O)c1cc(-c2ccccc2)n(-c2cccc(C(=O)Nc3cccc(C)c3)c2)c1C | inactive: -6.07%
20 | O=C(C1CC1)N1CCc2cc(Br)cc(S(=O)(=O)N3CCN(c4cccc(Cl)c4)CC3)c21 | inactive: -8.02%
21 | O=C(Nc1ccc2nc(SCC(=O)N3CCCC3)sc2c1)c1ccc(Br)cc1 | inactive: -1.28%
22 | Cc1ccc(CSc2ccc3nnc(CCNS(=O)(=O)c4ccc(C)cc4)n3n2)cc1 | inactive: -3.14%
23 | Cc1cccc(OCC(=O)OCc2cc(=O)n3nc(-c4cccs4)sc3n2)c1 | inactive: 0.0017%
24 | CCC(C)NC(=O)Cn1c(=O)n(-c2ccc(Cl)c(Cl)c2)c(=O)c2c(C)c(C(=O)N(CC)CC)sc21 (configuration not stated) | inactive: -2.35%

Row | Structure (SMILES) | activity change, negative = inhibition
25 | Cc1ccc(-n2ncc(C(=O)N3CCN(c4ccccn4)CC3)c2C2CCN(C(=O)OC(C)(C)C)CC2)cc1 | inactive: -30%
26 | Cc1ccc(NC(=O)c2cc(S(=O)(=O)N3CCCc4ccccc43)ccc2F)cc1F | inactive: 0%
27 | COc1ccc(Nc2c(-c3ccc(C)o3)nc3ccc(Cl)cn23)cc1 | inactive: 6.21%
28 | COC(=O)c1ccccc1NC(=O)Cn1c(=O)nc(-c2ccccc2)c2cc(Cl)ccc21 | inactive: 0%
29 | Cc1cccc(C)c1Nc1c(-c2cccs2)nc2ncccn12 | inactive: 1.59%
30 | CCCCC(=O)Nc1cc2nn(-c3ccc(OCC)cc3)nc2cc1C | inactive: -12.2%
31 | CC(=O)c1ccc(NC(=O)c2ccc(NC(=O)CCS(=O)(=O)c3cccs3)cc2)cc1 | inactive: -4.05%
32 | Cc1cccc(Cn2cc(S(=O)(=O)c3ccc(Cl)cc3)c(=O)c3cc4c(cc32)OCO4)c1 | inactive: -2.87%
33 | Cc1ccc(OCC(=O)Nc2cc(-c3nc4ccccc4[nH]3)ccc2C)c(C)c1 | inactive: -21.8%
34 | Cn1c(=O)c2c(SCC(=O)NCC3CCCO3)nc(-c3cccc(F)c3)nc2n(C)c1=O (configuration not stated) | inactive: 10.3%
35 | CS(=O)(=O)N1CCC(n2c(C(F)(F)F)nc3cccnc32)CC1 | inactive: -0.342%
36 | Cc1cccc(OCCSc2nc3ccc(NC(=O)c4cccs4)cc3s2)c1 | inactive: -19.9%
37 | CCn1c(CN2CCCCC2)nc2cc(NC(=O)c3ccccc3[N+](=O)[O-])ccc21 | inactive: -9.79%
38 | CSc1ncc(C(=O)NCc2ccc(Cl)cc2)c(C(F)(F)F)n1 | inactive: -10.4%
39 | Cc1ccc(NC(=O)c2c(C(=O)Nc3ccccc3)sc3nc(C)cc(=O)n23)c(C)c1 | inactive: 4.22%
40 | Cc1nn(-c2ccccc2)c(OC(=O)c2ccc(F)cc2)c1S(=O)(=O)c1ccccc1 | inactive: -7.05%
41 | CCN(C(=O)CCNC(=O)Cn1cnc2ccccc2c1=O)c1cccc(Cl)c1 | inactive: -8.11%
42 | COc1ccc(C2=C(C)C(N3CCC(C(=O)Nc4cc(C)ccc4C)CC3)=NS2(=O)=O)cc1 | inactive: 0%
43 | CCCn1cc(S(=O)(=O)c2ccc(C)cc2)c(=O)c2cc(OC)c(OC)cc21 | inactive: -0.693%
44 | COc1cccc(NC(=O)C(=O)NCCc2csc(-c3ccc(C)cc3)n2)c1 | inactive: 0.618%
45 | COC(=O)c1ccc(Cl)cc1NC(=O)NCc1c(-n2cccc2)sc2c1CCCC2 | inactive: 1.62%
46 | CCOc1ccc(C(=O)Nc2ccc(C(=O)OCc3cc(=O)n4ccsc4n3)cc2)cc1 | inactive: 0%
47 | CCOC(=O)c1ccc(NC(=O)c2csc3c2CCCC3)cc1 | inactive: 0.928%
